From PubChem BioAssay AID1768 (National Center for Advancing Translational Sciences (NCATS), 2009)
Among all 270,000 compounds or so, about 620 (0.23%) were called active. The inconclusive results got no clear call from the source; some entries with a clear call stand among them for comparison. The call rests on the fitted dose curve; in most records, active means well fitted inhibition curve with a large enough effect in the polarisation, with a control signal flat (not every such curve was filed as active); inconclusive means small, poorly fitted or top-dose-only effect, or effect the other way, or a change in a side signal; inactive means no such curve, though single readings can be large or run the other way; the % refers to the polarisation. Potencies of inconclusive entries are doubtful fits and often do not repeat. “Side channel” marks fits to a control or component signal instead of the main read-out.

biological target: Menin (Homo sapiens) (UniProt O00255); assay: qHTS Assay for Inhibitors Targeting the Menin-MLL Interaction in MLL Related Leukemias: Competition With Texas Red Labeled MLL-derived Mutant Peptide; settings: fluorescence polarization; FP activity change, negative = inhibition: at 61.6 µM (top of the series); on FP activity change, negative = inhibition: % of control where 0% means no effect
Sequence of UniProt O00255 (O00255 whole entry, looked up, the tested form may be a part): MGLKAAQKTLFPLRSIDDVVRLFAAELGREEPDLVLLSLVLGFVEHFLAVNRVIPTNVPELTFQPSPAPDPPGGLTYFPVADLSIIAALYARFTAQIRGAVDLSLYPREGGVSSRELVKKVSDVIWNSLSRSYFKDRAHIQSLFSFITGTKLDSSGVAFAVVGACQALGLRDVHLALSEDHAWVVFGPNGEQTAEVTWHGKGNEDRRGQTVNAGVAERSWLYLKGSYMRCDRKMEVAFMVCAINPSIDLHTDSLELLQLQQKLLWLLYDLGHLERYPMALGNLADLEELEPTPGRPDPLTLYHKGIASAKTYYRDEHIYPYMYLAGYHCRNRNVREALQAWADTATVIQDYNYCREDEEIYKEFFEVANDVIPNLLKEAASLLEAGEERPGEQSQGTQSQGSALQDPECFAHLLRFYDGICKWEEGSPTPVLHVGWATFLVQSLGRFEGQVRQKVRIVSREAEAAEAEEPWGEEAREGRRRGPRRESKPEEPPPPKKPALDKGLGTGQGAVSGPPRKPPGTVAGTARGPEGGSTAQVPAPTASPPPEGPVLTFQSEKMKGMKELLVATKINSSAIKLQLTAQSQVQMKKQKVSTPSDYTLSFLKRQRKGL
Description: qHTS Assay for Inhibitors Targeting the Menin-MLL Interaction in MLL Related Leukemias NIH Chemical Genomics Center [NCGC] NIH Molecular Libraries Probe Centers Network [MLPCN] MLPCN Grant: MH084875-01A1 Assay Submitter (PI): Jolanta Grembecka, Tomasz Cierpicki, University of Virginia Translocations of the MLL (Mixed Lineage Leukemia) gene are frequently found in human leukemias affecting both children and adults. Fusion of MLL to one of more than 60 genes results in generation of oncogenic proteins upregulating Hox genes, which are vital to blood cell development. Patients harboring fusion of the MLL gene suffer from aggressive leukemias and respond poorly to available therapies. All of the oncogenic fusion proteins have a preserved N-terminal fragment of MLL that has been identified to interact with menin. It has been recently discovered that association with menin is critical to the leukemogenic activity of the MLL fusion oncoproteins. Selective targeting of the menin-MLL interaction could provide an attractive therapeutic approach to develop novel drugs for MLL-related leukemias. Small molecules blocking the menin-MLL interaction should reverse the oncogenic potential of MLL fusion proteins. We have developed and optimized a fluorescence polarization-based assay for the identification of Menin-MLL inhibitors. The assay was run employing two different MLL-derived peptides. The present assay uses a 12 amino acid peptide labeled with fluorescein at its N-terminus. This peptide consists of the menin high affinity binding motif from MLL and is potently bound by menin. Another peptide with a mutated sequence, labeled with Texas Red, was used in parallel as a less stringent screen for inhibitors.
The Menin protein, the MLL-wild type (w.t.) derived peptide (N-terminal 12 amino acids), the MLL-derived peptide labeled with Texas Red and the MLL-w.t. peptide labeled with Fluorescein were kindly supplied by laboratory of Dr. Jolanta Grembecka, University of Virginia. All protein and peptide solutions were stored in single use aliquots at -80C. The Eu3+ Cyrptate-conjugated mouse monoclonal antibody anti-6 Histidine (Eu3+-AB) and the Streptavidin-XL665 conjugate (XL665) were purchased from Cisbio International (Bedford, MA). All antibody and XL665 conjugate solution stocks were stored in single use aliquots at -20C. The Buffer components for all assays were purchased from Sigma-Aldrich (St. Louis, MO) and Invitrogen (Carlsbad, CA). FP Assay Reagents: 1. FP reaction buffer: 50 mM Tris-HCl pH 7.5, 50 mM NaCl, 1mM DTT. Before use, 0.05% BSA is added. 2. Menin protein, MLL-w.t. labeled with fluorescein, MLL-mutant peptide labeled with texas red. Stored in singe use aliquots at -80C. 3. MLL-w.t. unlabeled peptide as positive control: 10 uM final in FP buffer. FP Assay Procedure: 1. Prepare Menin at 200 nM, MLL-w.t.-fluorescein at 25 nM, and MLL-mutant-texas red at 50 nM mixture in FP buffer. 2. Prepare Menin at 200 nM, MLL-w.t.-fluorescein at 25 nM, MLL-mutant-texas red at 50 nM, and 10 uM MLL-w.t. unlabeled mixture in FP buffer. 3. Prepare MLL-w.t.-fluorescein at 25 nM and MLL-mutant-texas red at 50 nM mixture in FP buffer. 3. Dispense 4 ul per well of reagent in step 1 in columns 2, 4 - 48 in a black 1536 well plate, dispense 4 ul per well of reagents from steps 2 and 3 in columns 1 and 3 respectively. Incubate plate at ambient for 15 minutes. 4. Transfer 23 nl per well of compound to plate and incubate at ambient for 1 hr. 5. Read fluorescence polarization for each label using the PerkinElmer Envision. Envision protocol for fluorescein: FITC FP Dual Enh Mirror, Excitation filter 480, Emission filter (1) P-pol 535, Emission filter (2) S-pol 535 Envision protocol for texas red: FP Dual Enh Mirror, Excitation filter 555, Emission filter (1) P-pol 632, Emission filter (2) S-pol 632
Potency means the concentration at half of the fitted maximal effect; tags describe the fitted curve by direction and shape or compound fluorescence and quenching.

Potency, inconclusive:
COC(=O)Cc1c(C)nc2nc(-c3cccnc3)[nH]n2c1=O 31.6 µM [inhibitor, partial curve]
COc1ccc(CNc2ncnc3cc(OC)c(OC)cc23)cc1 28.2 µM [inhibitor, partial curve]
O=C(CN1C(=O)/C(=C/c2ccccc2)SC1=S)Nc1ncc(Cc2ccccc2)s1 2.82 µM [quencher, side channel, full curve]
Cc1cccn2c(=O)c(C=O)c(Nc3ccc(S(N)(=O)=O)cc3)nc12 39.8 µM [inhibitor, single point]
O=C(c1ccc(F)cc1)C1CCN(CCn2c(=O)[nH]c3ccccc3c2=O)CC1 28.2 µM [inhibitor, partial curve]
Cc1ccc(/C(N)=N/OC(=O)CCC2CCCCC2)cc1 25.1 µM [inhibitor, partial curve, poor fit]
CCOC(=O)C1(CC2CC2)CCN(C(=O)c2cc(C)nc3ccc(CC)cc23)CC1 1.58 µM [fluorescent, side channel, full curve]
COc1ccc(C)cc1Nc1nc(-c2c(C)[nH]c3ccccc23)cs1 12.6 µM [quencher, side channel, partial curve]
COc1ccc(CN(C(=S)Nc2ccccc2)C2CC(=O)N(c3ccccc3)C2=O)cc1 (configuration not stated) 12.6 µM [quencher, side channel, partial curve]
O=C(COc1ccc(Cl)cc1)Nc1ncc([N+](=O)[O-])s1 17.8 µM [quencher, single point]
COc1nc(N2CCCCCC2)nc(N2CCCCCC2)n1 10 µM [fluorescent, side channel, partial curve]
COc1ccc(N2C(=O)CC(Sc3ccccc3C(=O)O)C2=O)c([N+](=O)[O-])c1 (configuration not stated) 12.6 µM [quencher, side channel, partial curve]
Cc1ncc([N+](=O)[O-])n1CCOC(=O)NC(NCc1ccccc1)C(Cl)(Cl)Cl (configuration not stated) 6.31 µM [inhibitor, full curve]
O=c1c2c(-c3cccs3)csc2[nH]c(=S)n1-c1ccccc1 11.2 µM [quencher, partial curve]
CC1=C(C(=O)Nc2ccc([N+](=O)[O-])cc2)C(c2cccc(C(F)(F)F)c2)NC(=S)N1c1ccccc1 (configuration not stated) 11.2 µM [quencher, side channel, partial curve]
O=C(O)CN1C(=O)/C(=C\C(Br)=C\c2ccccc2)SC1=S 31.6 µM [fluorescent, side channel, partial curve]
Cc1ccnc(SCC(=O)N2CCN(C(c3ccccc3)c3ccccc3)CC2)n1 31.6 µM [fluorescent, side channel, single point]
O=C(O)CC(NC(=O)c1sc2ccccc2c1Cl)c1ccc(OC2CCCC2)cc1 (configuration not stated) 25.1 µM [quencher, side channel, partial curve, poor fit]
O=C(Nc1ccccc1Cl)c1ccc(-n2cccn2)c([N+](=O)[O-])c1 35.5 µM [quencher, side channel, single point]
Cc1ccccc1NC(=O)Cc1nnc(SCc2ccc(Cl)c(Cl)c2)n1C 8.91 µM [fluorescent, side channel, partial curve]
Oc1ccc(-c2nc3ccccc3nc2-c2ccccc2)cc1 15.8 µM [quencher, side channel, partial curve]
CC1COc2ccccc2N1C(=O)c1ccc(F)cc1 (configuration not stated) 22.4 µM [inhibitor, single point]
Cc1cc(NC(=O)COC(=O)C2CC(=O)N(c3ccccc3Cl)C2)no1 (configuration not stated) 7.08 µM [quencher, side channel, single point]
O=C(NC(=S)Nc1ccc(Cl)cn1)c1cccs1 28.2 µM [inhibitor, single point]
Oc1ccc(-c2csc(Nc3ncccn3)n2)cc1O 15.8 µM [quencher, side channel, partial curve]
O=C(CN(C(=O)CCC(=O)Nc1ccccn1)c1ccc(F)cc1)NCc1ccco1 10 µM [inhibitor, partial curve]
O=C1NC(c2ccc(Br)cc2)Oc2ccccc21 (configuration not stated) 17.8 µM [inhibitor, single point]
COc1ccccc1CNC(=O)COc1ccc(S(=O)(=O)N2CCOCC2)cc1C 3.55 µM [inhibitor, partial curve]
CN(C)c1ccc(N=Cc2cccn2C)cc1 31.6 µM [inhibitor, single point]
CC(=O)C1=C(C)NC(SCC(=O)c2ccc(Cl)cc2Cl)=C(C#N)C1c1ccco1 (configuration not stated) 14.1 µM [quencher, side channel, single point]
O=C(N/N=C/c1ccc[nH]1)c1ccc(O)cc1 12.6 µM [quencher, side channel, partial curve, poor fit]
Cc1nc(NC(=O)CC(C)C)sc1-c1csc(Nc2ccc(Cl)cc2)n1 10 µM [quencher, side channel, partial curve]
O=c1c(C=Nc2ccc(Cl)cc2)c[nH]n1-c1cccc(Cl)n1 3.55 µM [inhibitor, single point]

FP activity change, negative = inhibition, inactive:
O=C(Cl)COCc1ccccc1 1.08%
COc1ccc2c(c1)O[C@@H](c1ccc3c(c1)OCO3)[C@H](OC(=O)N[C@H]1CCCc3ccccc31)C2=O -6.91%
CN1CCN(CC(=O)Nc2ccc(Oc3ccccc3)cc2)CC1 0.687%
CCCCNC(=O)c1cc2c(=O)n3cccc(C)c3nc2n(Cc2ccncc2)c1=N -5.93%
